Results as given in patent US8778342B2, “Antibody therapy” (Immunomedics, Inc., priority 2002, dated 2014).

System: TT MTC xenografts
Test: Chemotherapy of TT MTC xenografts in nude mice
Type: in vivo, human
Conditions: doses of FIG. 3: doxorubicin 20 mg/m^2 and DTIC 300 mg/m^2 days 0-2, cyclophosphamide 600 mg/m^2 and vincristine 4.2 μg day 0

**Q.** For `CN(C)/N=N/c1[nH]cnc1C(N)=O` [DTIC, dacarbazine], which “Approximate mean time to doubling” value is on record?
**A.** ~7.5 weeks

**Q.** With `COc1cccc2c1C(=O)c1c(O)c3c(c(O)c1C2=O)C[C@@](O)(C(=O)CO)C[C@@H]3O[C@H]1C[C@H](N)[C@H](O)[C@H](C)O1` [doxorubicin] as the molecule, how does the “Approximate mean time to doubling” value read?
**A.** ~2.5 weeks

**Q.** How did the “Approximate mean time to doubling” value turn out when `CC[C@]1(O)C[C@H]2CN(CCc3c([nH]c4ccccc34)[C@@](C(=O)OC)(c3cc4c(cc3OC)N(C=O)[C@H]3[C@@](O)(C(=O)OC)[C@H](OC(C)=O)[C@]5(CC)C=CCN6CC[C@]43[C@@H]65)C2)C1` [vincristine] was run?
**A.** ~1.5 weeks
